Test results from paper PMC9414507, “Drug Repurposing Based on Protozoan Proteome: In Vitro Evaluation of In Silico Screened Compounds against Toxoplasma gondii” (Pharmaceutics, 2022).
pEC50: −log10 of the molar value.

Assays:
T. gondii tachyzoites [1] = settings: for SI (Selectivity index): CC50 HFF cells/EC50 T. gondii ratio; for anti-T. gondii activity (range in words): in vitro
T. gondii tachyzoites [2] = assay: microbe, parasite or virus in culture; settings: Toxoplasma gondii, 72 h, read-out: EC50 (Half Effective Concentration against T. gondii tachyzoites)

## C=CCNc1nc(NCC=C)nc(N2CCN(C(c3ccc(F)cc3)c3ccc(F)cc3)CC2)n1 [Almitrine]
T. gondii tachyzoites [1]
  SI (Selectivity index): >47
  anti-T. gondii activity (range in words): nanomolar range
T. gondii tachyzoites [2]
  pEC50: 6.37

## CC(C)C[C@H](NC(=O)[C@H](Cc1ccccc1)NC(=O)c1cnccn1)B(O)O [Bortezomib]
T. gondii tachyzoites [1]
  SI (Selectivity index): 0.35
  anti-T. gondii activity (range in words): nanomolar range
T. gondii tachyzoites [2]
  pEC50: 6.65

## C[C@H]1O[C@@H](O[C@H]2[C@@H](O)C[C@H](O[C@H]3[C@@H](O)C[C@H](O[C@H]4CC[C@@]5(C)[C@H](CC[C@@H]6[C@@H]5CC[C@]5(C)[C@@H](C7=CC(=O)OC7)CC[C@]65O)C4)O[C@@H]3C)O[C@@H]2C)C[C@H](O)[C@@H]1O [Digitoxin]
T. gondii tachyzoites [1]
  anti-T. gondii activity (range in words): micromolar range
T. gondii tachyzoites [2]
  pEC50: 5.25

## C[C@H]1O[C@@H](O[C@H]2[C@@H](O)C[C@H](O[C@H]3[C@@H](O)C[C@H](O[C@H]4CC[C@@]5(C)[C@H](CC[C@@H]6[C@@H]5C[C@@H](O)[C@]5(C)[C@@H](C7=CC(=O)OC7)CC[C@]65O)C4)O[C@@H]3C)O[C@@H]2C)C[C@H](O)[C@@H]1O [Digoxin]
T. gondii tachyzoites [1]
  anti-T. gondii activity (range in words): micromolar range
T. gondii tachyzoites [2]
  pEC50: 4.37

## COc1cccc2c1C(=O)c1c(O)c3c(c(O)c1C2=O)C[C@@](O)(C(=O)CO)C[C@@H]3O[C@H]1C[C@H](N)[C@H](O)[C@H](C)O1 [Doxorubicin]
T. gondii tachyzoites [1]
  anti-T. gondii activity (range in words): micromolar range
T. gondii tachyzoites [2]
  pEC50: 5.62

## Nc1nc(F)nc2c1ncn2[C@@H]1O[C@H](CO)[C@@H](O)[C@@H]1O [Fludarabine]
T. gondii tachyzoites [1]
  SI (Selectivity index): 2.85
  anti-T. gondii activity (range in words): nanomolar range
T. gondii tachyzoites [2]
  pEC50: 6.12

## CC(=O)O[C@H]1C[C@@]2(C)[C@@H](C[C@@H](O)[C@H]3[C@@]4(C)CC[C@@H](O)[C@@H](C)[C@@H]4CC[C@@]32C)/C1=C(\CCC=C(C)C)C(=O)O [Fusidic acid]
T. gondii tachyzoites [1]
  anti-T. gondii activity (range in words): micromolar range
T. gondii tachyzoites [2]
  pEC50: 4.78

## C[C@H]1COc2c(N3CCN(C)CC3)c(F)cc3c(=O)c(C(=O)O)cn1c23 [Levofloxacin]
T. gondii tachyzoites [1]
  anti-T. gondii activity (range in words): micromolar range
T. gondii tachyzoites [2]
  pEC50: 4.15

## CCn1cc(C(=O)O)c(=O)c2cc(F)c(N3CCNC(C)C3)c(F)c21 (stereo not drawn) [Lomefloxacin]
T. gondii tachyzoites [1]
  anti-T. gondii activity (range in words): micromolar range
T. gondii tachyzoites [2]
  pEC50: 5.14

## COc1c(C)c2c(c(O)c1C/C=C(\C)CCC(=O)O)C(=O)OC2 [Mycophenolic acid]
T. gondii tachyzoites [1]
  anti-T. gondii activity (range in words): micromolar range
T. gondii tachyzoites [2]
  pEC50: 5.09

## CCc1nc(N)nc(N)c1-c1ccc(Cl)cc1 [Pyrimethamine]
T. gondii tachyzoites [2]
  pEC50: 6.92

## NC(=O)c1ncn([C@@H]2O[C@H](CO)[C@@H](O)[C@H]2O)n1 [Ribavirin]
T. gondii tachyzoites [1]
  anti-T. gondii activity (range in words): micromolar range
T. gondii tachyzoites [2]
  pEC50: 4.08

## COc1cc(Cc2cnc(N)nc2N)cc(OC)c1OC [Trimethoprim]
T. gondii tachyzoites [1]
  anti-T. gondii activity (range in words): micromolar range
T. gondii tachyzoites [2]
  pEC50: 5.13

## CCCC(CCC)C(=O)O [Valproic acid]
T. gondii tachyzoites [1]
  anti-T. gondii activity (range in words): micromolar range
T. gondii tachyzoites [2]
  pEC50: 4.00
